146 sequences from the BET-seq Pho4 binding data (Le et al. 2018) can be followed below.

Some of the results follow. These are noisy estimates, calculated here from bound and input reads.

The target of this assay is T1, Pho4 (S. cerevisiae) (UniProt P07270).
T1 sequence: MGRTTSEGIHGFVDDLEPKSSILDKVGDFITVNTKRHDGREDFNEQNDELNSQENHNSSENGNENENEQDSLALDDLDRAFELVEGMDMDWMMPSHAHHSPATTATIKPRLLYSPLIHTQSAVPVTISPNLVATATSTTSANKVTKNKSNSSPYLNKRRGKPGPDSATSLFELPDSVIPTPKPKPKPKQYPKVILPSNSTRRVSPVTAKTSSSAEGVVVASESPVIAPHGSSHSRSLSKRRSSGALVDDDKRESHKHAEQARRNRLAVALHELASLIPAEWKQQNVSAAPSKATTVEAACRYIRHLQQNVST
In words: relative binding free energy (BET-seq); higher = weaker binding. Particulars: reference: library average.
GGTGCCACGTGTGATT: the “relative binding free energy” value turned out to be 0.07 kcal/mol.
To GCGGGCACGTGGACGT belongs -0.05 kcal/mol; to GGAACCACGTGAGTGG, 0.19 kcal/mol; to AAGAGCACGTGGTTTT, -0.12 kcal/mol.
As for ATGGACACGTGTTGGC, the “relative binding free energy” value was 0.11 kcal/mol.
In the case of GGAGGCACGTGTGAGT it was -0.07 kcal/mol.
As for TGTGTCACGTGATTCT, the “relative binding free energy” value was determined as 0.28 kcal/mol.
TTAATCACGTGGGTCA: the “relative binding free energy” value is 0 kcal/mol.
On to AATCGCACGTGGGTGT, for which the “relative binding free energy” value was -0.28 kcal/mol.
In the case of TGCGGCACGTGGACTG it was -0.07 kcal/mol.
In the case of GACTGCACGTGAGCGG it was 0.29 kcal/mol; in that of CTGGGCACGTGGTATT, -0.12 kcal/mol.
For TGTGGCACGTGTTAAA, the “relative binding free energy” value was determined as 0.04 kcal/mol.
AGTTACACGTGGTTTT: the “relative binding free energy” value amounted to 0.09 kcal/mol.
To GTTTGCACGTGTCTAA belongs 0.25 kcal/mol; to TTACGCACGTGTGCGT, -0.23 kcal/mol.
To TGAATCACGTGTATTA belongs 0.18 kcal/mol; to TGGATCACGTGGTGTC, 0.09 kcal/mol.
For the sequence GTGGGCACGTGGAATT, the “relative binding free energy” value was determined as 0.13 kcal/mol.
AGGTTCACGTGTCAGT: the “relative binding free energy” value turned out to be 0.23 kcal/mol.
Turning to GGACGCACGTGTGAGG, the “relative binding free energy” value is -0.1 kcal/mol.
GGGTTCACGTGCGTAT: the “relative binding free energy” value is 0.3 kcal/mol.
AGTGGCACGTGGACTT: the “relative binding free energy” value was -0.21 kcal/mol.
To CTATTCACGTGCGTTT belongs 0.18 kcal/mol.
On to TTGAACACGTGCGAGT, for which the “relative binding free energy” value amounted to 0.07 kcal/mol.
Turning to AGCGGCACGTGGAAAT, the “relative binding free energy” value amounted to 0.12 kcal/mol.
To CATGGCACGTGGGTGG belongs -0.21 kcal/mol; to GATGGCACGTGTGCAG, -0.15 kcal/mol.
Take ATTGTCACGTGGCGAT: the “relative binding free energy” value is -0.04 kcal/mol.
With GGCTGCACGTGGAGGT, the “relative binding free energy” value was -0.04 kcal/mol.
As for AGGGACACGTGCGGTG, the “relative binding free energy” value is -0.07 kcal/mol.
ATGCGCACGTGTGATG: the “relative binding free energy” value is -0.02 kcal/mol.
As for ATGTACACGTGTGTGT, the “relative binding free energy” value was 0.09 kcal/mol.
Regarding GTAACCACGTGGGAGT, the “relative binding free energy” value is -0.04 kcal/mol.
ATTTACACGTGAGAGA: the “relative binding free energy” value was 0.33 kcal/mol.
For the sequence GGCTTCACGTGTTTGG, the “relative binding free energy” value was determined as 0.29 kcal/mol.
Turning to TTTTACACGTGCGTCT, the “relative binding free energy” value came out at 0.13 kcal/mol.
On to CCTGGCACGTGGGGGA, for which the “relative binding free energy” value was -0.23 kcal/mol.
In the case of ATGGACACGTGATGTA, the “relative binding free energy” value was 0.08 kcal/mol.
To GTCGACACGTGGCGGG belongs 0.08 kcal/mol; to GGGTGCACGTGAGATC, 0.32 kcal/mol; to TTGGTCACGTGACGGA, 0.31 kcal/mol.
To TGGGGCACGTGTAGAC belongs -0.03 kcal/mol.
In the case of CCTTGCACGTGGGGGT it was -0.18 kcal/mol; in that of TTGGACACGTGGTCAG, 0 kcal/mol.
As for TATGGCACGTGCGTTT, the “relative binding free energy” value is -0.09 kcal/mol.
To GTGGACACGTGTTGCA belongs 0.07 kcal/mol; to ACGTTCACGTGTTGGG, 0.14 kcal/mol.
As for GGCTCCACGTGGTTGG, the “relative binding free energy” value was -0.01 kcal/mol.
Turning to TGTAGCACGTGGGGGG, the “relative binding free energy” value is -0.18 kcal/mol.
With AGTACCACGTGGATGG, the “relative binding free energy” value was found to be 0.03 kcal/mol.
As for GTATGCACGTGGGATG, the “relative binding free energy” value is -0.01 kcal/mol.
To CTGATCACGTGTTTTG belongs 0.23 kcal/mol; to TGGTGCACGTGGTAAG, -0.09 kcal/mol.
Consider GGGGTCACGTGCTAAT, for which the “relative binding free energy” value was 0.12 kcal/mol.
In the case of AATCGCACGTGATGTG, the “relative binding free energy” value stood at 0.09 kcal/mol.
On to TTTTACACGTGGATCT, for which the “relative binding free energy” value was 0.13 kcal/mol.
For the sequence AATTTCACGTGAGCGT, the “relative binding free energy” value is 0.29 kcal/mol.
Turning to AAGGTCACGTGGTTGA, the “relative binding free energy” value was 0.02 kcal/mol.
For TATGGCACGTGGTATG, the “relative binding free energy” value is -0.17 kcal/mol.
As to TTTAGCACGTGCTATT, the “relative binding free energy” value is -0.1 kcal/mol.
With CCATGCACGTGGTGGT, the “relative binding free energy” value is -0.27 kcal/mol.
For ATTTTCACGTGTCGTG, the “relative binding free energy” value is 0.2 kcal/mol.
Regarding TGTTACACGTGAACGG, the “relative binding free energy” value worked out at 0.31 kcal/mol.
On to GCTTGCACGTGTGGTC, for which the “relative binding free energy” value was 0.17 kcal/mol.
For GGCTACACGTGGGGGG, the “relative binding free energy” value is -0.05 kcal/mol.
For the sequence AGCTGCACGTGGGTGT, the “relative binding free energy” value was -0.22 kcal/mol.
For ATTACCACGTGTTTGT, the “relative binding free energy” value is -0.14 kcal/mol.
For GGGTCCACGTGAGCTG, the “relative binding free energy” value stood at 0.29 kcal/mol.
Consider AATTGCACGTGTCGAG, for which the “relative binding free energy” value amounted to 0.12 kcal/mol.
In the case of GTGTCCACGTGATGTA it was 0.13 kcal/mol; in that of CATAGCACGTGTGAGT, 0.06 kcal/mol.
Consider TTCGACACGTGTTTTG, for which the “relative binding free energy” value is -0.01 kcal/mol.
Regarding TGTGTCACGTGCGATA, the “relative binding free energy” value amounted to 0.12 kcal/mol.
GGTGGCACGTGAAGTA: the “relative binding free energy” value turned out to be 0.21 kcal/mol.
Turning to GGTGTCACGTGATTTG, the “relative binding free energy” value is 0.27 kcal/mol.
To AGGGTCACGTGACGCG belongs 0.26 kcal/mol; to CTTGTCACGTGGTCGG, 0 kcal/mol; to GTGTTCACGTGGCTTC, 0.25 kcal/mol.
On to ATTTGCACGTGGATGT, for which the “relative binding free energy” value amounted to 0.11 kcal/mol.
In the case of TGGTGCACGTGCAGAT it was -0.1 kcal/mol; in that of AGTGGCACGTGGCATG, -0.3 kcal/mol.
Consider TGAGACACGTGGCGTT, for which the “relative binding free energy” value came out at 0.15 kcal/mol.
In the case of GAGTTCACGTGTACGT it was 0.42 kcal/mol.
Consider CTGATCACGTGGTGAT, for which the “relative binding free energy” value is 0.05 kcal/mol.
As to TTGGTCACGTGTCTTT, the “relative binding free energy” value was 0.08 kcal/mol.
Regarding TCGGTCACGTGTGTGG, the “relative binding free energy” value was determined as 0.07 kcal/mol.
As for ATGGTCACGTGAGACG, the “relative binding free energy” value was found to be 0.16 kcal/mol.
To TTGTTCACGTGATTAT belongs 0.27 kcal/mol; to AGCTACACGTGTGGGA, 0.25 kcal/mol; to TACTTCACGTGTGGTG, 0.17 kcal/mol.
For TGGTTCACGTGAGTTC, the “relative binding free energy” value amounted to 0.39 kcal/mol.
For TTGGTCACGTGATTTT, the “relative binding free energy” value stood at 0.26 kcal/mol.
As for AGTGACACGTGGCTTG, the “relative binding free energy” value was -0.02 kcal/mol.
In the case of GGGTACACGTGGGCTG, the “relative binding free energy” value was -0.1 kcal/mol.
Take GCGGGCACGTGGGCAG: the “relative binding free energy” value is -0.22 kcal/mol.
For TTTGTCACGTGCTAGT, the “relative binding free energy” value was -0.01 kcal/mol.
On to CTCTTCACGTGGTTTA, for which the “relative binding free energy” value was 0.21 kcal/mol.
With GAGGGCACGTGCTGGG, the “relative binding free energy” value is -0.13 kcal/mol.
Turning to TGTGTCACGTGGCTCA, the “relative binding free energy” value turned out to be 0.02 kcal/mol.
Consider AAAGGCACGTGATGAT, for which the “relative binding free energy” value stood at 0.06 kcal/mol.
As to CCGGGCACGTGGGTAT, the “relative binding free energy” value was -0.3 kcal/mol.
In the case of GTTCACACGTGGCTGT it was 0.09 kcal/mol.
In the case of GTGTCCACGTGTTTTG it was -0.02 kcal/mol.
For GCTTGCACGTGGTGCG, the “relative binding free energy” value stood at 0.02 kcal/mol.
With TATAGCACGTGCTGTT, the “relative binding free energy” value is -0.18 kcal/mol.
With GAGTTCACGTGGTTAA, the “relative binding free energy” value stood at 0.28 kcal/mol.
For GCTTACACGTGAGTTG, the “relative binding free energy” value was 0.32 kcal/mol.
With TAGTGCACGTGAGCGT, the “relative binding free energy” value was 0.15 kcal/mol.
Consider AGGATCACGTGGCGTT, for which the “relative binding free energy” value was 0.11 kcal/mol.
In the case of TACTGCACGTGTGGGC it was -0.06 kcal/mol.
In the case of GAGATCACGTGAATTG, the “relative binding free energy” value amounted to 0.37 kcal/mol.
Take AAAGTCACGTGAGTTG: the “relative binding free energy” value was 0.32 kcal/mol.
With AGCTGCACGTGGGGCG, the “relative binding free energy” value was -0.07 kcal/mol.
For GCTGGCACGTGGCGGT, the “relative binding free energy” value is -0.11 kcal/mol.
For TATTGCACGTGATAGA, the “relative binding free energy” value was -0.05 kcal/mol.
Turning to AGGCGCACGTGGGATA, the “relative binding free energy” value was -0.24 kcal/mol.
On to AGTGTCACGTGTCTAG, for which the “relative binding free energy” value is 0.1 kcal/mol.
Regarding AGAGTCACGTGAGGAT, the “relative binding free energy” value is 0.45 kcal/mol.
With TTCGTCACGTGGGGGC, the “relative binding free energy” value was -0.05 kcal/mol.
Regarding GCTTGCACGTGGCGTT, the “relative binding free energy” value is 0.03 kcal/mol.
To AGGCACACGTGGGGTG belongs -0.21 kcal/mol; to GGCATCACGTGAAGGG, 0.45 kcal/mol; to TGTGCCACGTGAAGGG, 0.18 kcal/mol.
Turning to TTGGGCACGTGAGCTG, the “relative binding free energy” value came out at 0.17 kcal/mol.
Regarding TTTGACACGTGGCCTG, the “relative binding free energy” value was 0 kcal/mol.
In the case of GGCGTCACGTGGTTCG it was 0.03 kcal/mol; in that of TTTCGCACGTGAGGGA, 0.13 kcal/mol.
Turning to TGTTGCACGTGCTATT, the “relative binding free energy” value is -0.13 kcal/mol.
Turning to ATGGCCACGTGATTGG, the “relative binding free energy” value was -0.01 kcal/mol.
Take AAGTCCACGTGGTGTG: the “relative binding free energy” value was -0.26 kcal/mol.
Turning to ATTAGCACGTGAGTTT, the “relative binding free energy” value came to 0.12 kcal/mol.
In the case of TTTTGCACGTGAAAGA, the “relative binding free energy” value stood at 0.31 kcal/mol.
To CAGTTCACGTGGGGGT belongs 0.1 kcal/mol.
In the case of TCATGCACGTGCGGGC it was 0.21 kcal/mol; in that of GTATGCACGTGGATTG, 0.21 kcal/mol; in that of GTCTTCACGTGGGTCA, 0.2 kcal/mol.
Regarding ATATACACGTGGTTTA, the “relative binding free energy” value worked out at 0.02 kcal/mol.
On to TTGCACACGTGCGTGG, for which the “relative binding free energy” value is -0.1 kcal/mol.
Regarding TAGAGCACGTGTTGCG, the “relative binding free energy” value was -0.18 kcal/mol.
In the case of AAGGGCACGTGATGGC, the “relative binding free energy” value is -0.03 kcal/mol.
Take TGTTTCACGTGTTAGC: the “relative binding free energy” value is 0.19 kcal/mol.
TTCAGCACGTGGTAGG: the “relative binding free energy” value was -0.03 kcal/mol.
Regarding ACGAGCACGTGGGTAT, the “relative binding free energy” value was -0.23 kcal/mol.
For GGCGCCACGTGAGAGG, the “relative binding free energy” value came to 0.23 kcal/mol.
As for TGGGACACGTGATCAG, the “relative binding free energy” value stood at 0.13 kcal/mol.
